Hit rate of the full screen: of about 320,000 compounds, about 200 (0.062%) were called active. This list was built around the results that the source calls inconclusive (neither active nor inactive); the mix of calls is not that of the screen. The call rests on the fitted dose curve; in most records, active means well fitted activation curve with a large enough effect; inconclusive means small, poorly fitted or top-dose-only effect; inactive means no such curve, though single readings can be large or run the other way. Potencies of inconclusive entries are left out as doubtful fits.
Experiment: qHTS assay for re-activators of p53 using a Luc reporter; further: nearly all actives have a fitted effect of over 45% in size
Details: H1299 p53-A138V BP100-luciferase reporter, luminescence, 24 h; series mostly up to 92.2 µM
Method in brief: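 H1299 (p53-null), stable ts p53-A138V + BP100-Luc; 1000 cells/well, Opti-MEM/10% FBS; cpd 4 pt, 1:5; 24 h, 37 deg C, 5% CO2; detection reagent 10 min RT; luminescence.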
Potency means the concentration at half of the fitted maximal effect; tags describe the fitted curve by direction and shape.

Question: Which Potency does the source give for `Cc1ccc(C(=O)/C=C/c2ccco2)c(O)c1` here?
Answer: inconclusive [activator, partial curve, poor fit]

Question: For `COc1ccc(-n2nc(C(=O)NCC(=O)N3CCC(C)CC3)c3ccccc3c2=O)c(OC)c1`, which Potency is on record?
Answer: inconclusive [activator, full curve, poor fit]

Question: For `CCOC(=O)c1c(C)n(-c2ccc(C)cc2)c2ccc(OCC(O)CNCCCO)cc12` (stereo not drawn), which Potency is on record?
Answer: inactive

Question: With `CC1(C)CC(NC(=S)NC(=O)c2cc(Br)ccc2Cl)CC(C)(C)N1` as the molecule, how does the Potency read?
Answer: inconclusive [activator, single point]

Question: Which Potency does the source give for `COc1ccc(NC(=O)C2CCN(C(=O)Nc3ccccc3)CC2)cc1S(=O)(=O)N(C)C` here?
Answer: inconclusive [activator, single point]

Question: With `O=C(CN1C(=O)C2CCCCC2C1=O)Nc1ccc(S(=O)(=O)Nc2ncccn2)cc1` (stereo not drawn) as the molecule, how does the Potency read?
Answer: inconclusive [activator, single point]

Question: Which Potency does the source give for `O=C(Nc1ccccc1O)c1ccc(NS(=O)(=O)c2cccc3cccnc23)cc1` here?
Answer: inconclusive [activator, partial curve, poor fit]

Question: With `CC(C)Cc1ccc(CN2CCCC(NC(=O)CCN3CCCO3)C2)cc1` (stereo not drawn) as the molecule, how does the Potency read?
Answer: inconclusive [activator, single point]

Question: For `COc1ccc(C2=NN(CCC(=O)NCc3ccc4c(c3)OCO4)C(=O)CC2)cc1`, which Potency is on record?
Answer: inactive

Question: With `Cc1ccc(S(=O)(=O)NNC(=O)c2sccc2-n2cccc2)cc1` as the molecule, how does the Potency read?
Answer: inactive

Question: For `ClC1(Cl)CC1Cn1cnc2ccccc21` (stereo not drawn), which Potency is on record?
Answer: inactive

Question: For `Cc1cc(C)c(NC(=O)NC(=O)c2cccc(F)c2)c(C)n1`, which Potency is on record?
Answer: inconclusive [activator, partial curve, poor fit]

Question: With `O=[N+]([O-])c1ccc(/C=N/Nc2ncc(Br)cn2)cc1` as the molecule, how does the Potency read?
Answer: inconclusive [activator, single point]

Question: Which Potency does the source give for `COc1ccc(Cl)cc1C(=O)NNC(=O)CCNS(=O)(=O)c1ccccc1` here?
Answer: inactive

Question: With `COc1ccccc1Nc1ncnc2c1oc1ccccc12` as the molecule, how does the Potency read?
Answer: inconclusive [activator, partial curve, poor fit]

Question: For `COc1cccc2sc3ccc(C#CC4(O)CCCCC4)cc3c(=O)c12`, which Potency is on record?
Answer: inconclusive [activator, partial curve, poor fit]

Question: With `Cc1ccc(-c2cc(C(F)F)n3ncc(C(=O)N4CCc5ccccc54)c3n2)cc1` as the molecule, how does the Potency read?
Answer: inactive

Question: With `COc1ccc(N(Cc2cc3cccc(C)c3[nH]c2=O)S(C)(=O)=O)cc1` as the molecule, how does the Potency read?
Answer: inactive

Question: With `O=C1CC(C(=O)N2CCCc3ccccc32)CN1c1ccc(Cl)cc1` (stereo not drawn) as the molecule, how does the Potency read?
Answer: inconclusive [activator, single point]

Question: Which Potency does the source give for `CCc1ccc(OCc2ccc(C(=O)NCc3ccccn3)o2)cc1` here?
Answer: inconclusive [activator, full curve, poor fit]

Question: With `O=C(c1ccccc1)c1c[nH]c2cc3c(cc2c1=O)OCCO3` as the molecule, how does the Potency read?
Answer: inconclusive [activator, partial curve, poor fit]

Question: With `CC1CCC2(CC1)C(Nc1cccc(Cl)c1)=NC(=S)N2CC#N` (stereo not drawn) as the molecule, how does the Potency read?
Answer: inconclusive [activator, partial curve, poor fit]

Question: For `COc1ccc2[nH]c(C(=O)O)c(CCN3C(=O)c4ccc(C(=O)O)cc4C3=O)c2c1`, which Potency is on record?
Answer: inconclusive [activator, single point]

Question: Which Potency does the source give for `CCOC(=O)c1cc2c(C)n(-c3ccc(C)cc3)c(C)c2ccc1=O` here?
Answer: inconclusive [activator, partial curve, poor fit]

Question: With `COC(=O)Cc1csc(NC(=O)c2ccc3ncsc3c2)n1` as the molecule, how does the Potency read?
Answer: inconclusive [activator, partial curve, poor fit]

Question: With `CCN(CC(=O)Nc1c(F)cccc1F)C(=O)c1cn2ccccc2n1` as the molecule, how does the Potency read?
Answer: inactive

Question: For `CC(/C=C/c1ccccc1)=N/NC(=O)C(O)c1ccccc1` (stereo not drawn), which Potency is on record?
Answer: inconclusive [activator, partial curve, poor fit]

Question: For `COc1ccc(Cc2nc(-c3cccc(C)c3)no2)cc1`, which Potency is on record?
Answer: inconclusive [activator, partial curve, poor fit]

Question: For `COc1ccc(-c2coc3c(CN4CCCCC4)c(O)c(CN4CCCCC4)c(O)c3c2=O)cc1`, which Potency is on record?
Answer: inconclusive [activator, single point]

Question: Which Potency does the source give for `COc1ccc2nc(SCc3cccc(C)c3)nc(C)c2c1` here?
Answer: inconclusive [activator, full curve, poor fit]

Question: Which Potency does the source give for `Cc1ccc(S(=O)(=O)/C(C#N)=C/c2ccccc2OCc2ccccc2)cc1` here?
Answer: inconclusive [activator, full curve, poor fit]

Question: For `O=C(/C=C/N1CCOCC1)c1cc2ccccc2o1`, which Potency is on record?
Answer: inconclusive [activator, partial curve, poor fit]

Question: Which Potency does the source give for `O=C(CCCC(=O)NC1CCCCC1)Nc1ccc([N+](=O)[O-])cc1` here?
Answer: inconclusive [activator, single point]

Question: With `O=C(Nc1cccc(Cl)c1)N1CCN(Cc2ccccc2)CC1` as the molecule, how does the Potency read?
Answer: inactive

Question: With `CC(NC(=O)COC(=O)c1cn(-c2ccccc2)nc1-c1cccs1)c1ccccc1` (stereo not drawn) as the molecule, how does the Potency read?
Answer: inactive

Question: With `Cc1nc2cc(-c3ccccc3)ccc2o1` as the molecule, how does the Potency read?
Answer: inconclusive [activator, partial curve, poor fit]

Question: With `N#CCSc1nnc2ccc3ccccc3n12` as the molecule, how does the Potency read?
Answer: inconclusive [activator, single point]

Question: With `Cc1cccc(Nc2nc3c(s2)CCCC3)c1` as the molecule, how does the Potency read?
Answer: inconclusive [activator, partial curve, poor fit]

Question: For `O=[N+]([O-])c1cccc(NC(=S)N2CCN(c3ccccn3)CC2)c1`, which Potency is on record?
Answer: inconclusive [activator, full curve, poor fit]

Question: Which Potency does the source give for `CCCC1(C)Nc2ccccc2-c2nc3ccccc3n21` (stereo not drawn) here?
Answer: inconclusive [activator, partial curve, poor fit]

Question: Which Potency does the source give for `O=C(Nc1ccc(CN2CCOCC2)cc1)c1ccc(Cl)cc1` here?
Answer: inconclusive [activator, single point]

Question: With `Cc1ccsc1/C=N/NC(=O)c1ccccn1` as the molecule, how does the Potency read?
Answer: inconclusive [activator, full curve, poor fit]

Question: Which Potency does the source give for `Cc1cccc(Nc2nc(-c3ccccn3)cs2)n1` here?
Answer: inconclusive [activator, partial curve, poor fit]

Question: With `O=C1/C(=C\c2ccco2)SC(=S)N1Cc1ccccc1` as the molecule, how does the Potency read?
Answer: inactive

Question: For `Nc1ccccc1-c1nnc(SCc2ccccc2F)[nH]c1=O`, which Potency is on record?
Answer: inconclusive [activator, single point]

Question: For `COc1ccc(OC)c(NC(=O)c2cn(C)c(=O)c3cc(OC)c(OC)cc23)c1`, which Potency is on record?
Answer: inactive

Question: For `CCCCNC(=O)CCCCCn1c(=O)[nH]c2cc(OC)c(OC)cc2c1=O`, which Potency is on record?
Answer: inactive

Question: For `CC(C)OC(=O)c1ccc(NC(=O)C2C3CC4OC(=O)C2C4C3)cc1` (stereo not drawn), which Potency is on record?
Answer: inconclusive [activator, partial curve, poor fit]

Question: With `Cc1cc(C(=O)COC(=O)C23CC4CC(CC(O)(C4)C2)C3)c(C)n1C` as the molecule, how does the Potency read?
Answer: inconclusive [activator, partial curve, poor fit]

Question: For `CCCNC(=O)COC(=O)/C(C#N)=C/c1cc(C)n(CCC)c1C`, which Potency is on record?
Answer: inactive

Question: Which Potency does the source give for `COc1ccc(C(=O)Nc2nnc(-c3ccccc3)o2)cc1OC` here?
Answer: inconclusive [activator, single point]

Question: Which Potency does the source give for `COc1ccc(OC)c(NC(=O)c2ccc(Cl)cc2)c1` here?
Answer: inactive

Question: With `COc1cnn(-c2ccc(C)cc2)c(=O)c1SCc1ccccc1` as the molecule, how does the Potency read?
Answer: inconclusive [activator, partial curve, poor fit]

Question: Which Potency does the source give for `Cc1occc1C(=O)N/N=C/c1c(O)ccc2ccccc12` here?
Answer: inconclusive [activator, full curve]

Question: With `COc1cccc(NC(=O)c2cc3ccccc3cc2OC)c1` as the molecule, how does the Potency read?
Answer: inactive

Question: For `O=C(Nc1ccc(O)c2c(=O)cc(-c3ccccc3Cl)oc12)c1ccccc1Cl`, which Potency is on record?
Answer: inactive

Question: Which Potency does the source give for `COc1ccc(-c2cccc(C(=O)Nc3cccc(C(=O)O)c3)c2)cc1` here?
Answer: inconclusive [activator, full curve, poor fit]

Question: With `O=C(CSCc1ccccc1)N1CCN(c2ccccc2)CC1` as the molecule, how does the Potency read?
Answer: inconclusive [activator, partial curve, poor fit]

Question: For `CCOC(=O)c1sc2nc(NC(=O)C(C)(C)C)sc2c1C`, which Potency is on record?
Answer: inconclusive [activator, partial curve, poor fit]

Question: Which Potency does the source give for `Cc1ccc(N2C=Nc3ccc(C)c4nc(C)cc2c34)cc1` here?
Answer: inactive

Question: For `O=C(Nc1ccc2c(c1)OCO2)[C@@H]1[C@@H]2C(=O)N(C3CCCCC3)C(=O)[C@@H]2C2c3ccccc3C=CN21` (stereo partly drawn), which Potency is on record?
Answer: inconclusive [activator, single point]

Question: With `COc1ccc(-c2c(-c3ccsc3)oc(=O)c3cc(OC)c(OC)cc23)cc1` as the molecule, how does the Potency read?
Answer: inactive

Question: Which Potency does the source give for `Cc1noc(NS(=O)(=O)c2ccc(NC(=O)CSc3nc4c(cc3C#N)CCCC4)cc2)c1C` here?
Answer: inactive

Question: With `O=S(=O)(NC1CCN(Cc2ccccc2)CC1)c1ccc2ccccc2c1` as the molecule, how does the Potency read?
Answer: inconclusive [activator, single point]

Question: For `Cc1ccc(C)n1-c1ccc(N2CCOCC2)nc1`, which Potency is on record?
Answer: inconclusive [activator, partial curve, poor fit]

Question: For `Nc1nnc(SCc2ccc(F)cc2Cl)s1`, which Potency is on record?
Answer: inactive

Question: With `COc1nc(C)ccc1-c1noc(-c2ccco2)n1` as the molecule, how does the Potency read?
Answer: inconclusive [activator, partial curve, poor fit]

Question: With `C=CCn1c(C)cc(C(=O)COC(=O)c2ccc(N)c([N+](=O)[O-])c2)c1C` as the molecule, how does the Potency read?
Answer: inconclusive [activator, full curve, poor fit]

Reference: PubChem BioAssay AID504706 (National Center for Advancing Translational Sciences (NCATS), 2011)
